Results: publication PMC8827906
Where two headings read alike, the source gives them in different places. Results are given in words; binding and its absence hold for the method and conditions named. Binding seen in cells or lysates may run through a third protein. Some results given as binding are weak or reduced against the parent protein; the word gives no strength. For part of these data: Tags and fused reporters may be left off the sequences shown. Blank lines part the entries; values can stand above or below the molecule they belong to.

By UniProt entry, the sequences of proteins in these tests, tags left out.
UniProt P07437: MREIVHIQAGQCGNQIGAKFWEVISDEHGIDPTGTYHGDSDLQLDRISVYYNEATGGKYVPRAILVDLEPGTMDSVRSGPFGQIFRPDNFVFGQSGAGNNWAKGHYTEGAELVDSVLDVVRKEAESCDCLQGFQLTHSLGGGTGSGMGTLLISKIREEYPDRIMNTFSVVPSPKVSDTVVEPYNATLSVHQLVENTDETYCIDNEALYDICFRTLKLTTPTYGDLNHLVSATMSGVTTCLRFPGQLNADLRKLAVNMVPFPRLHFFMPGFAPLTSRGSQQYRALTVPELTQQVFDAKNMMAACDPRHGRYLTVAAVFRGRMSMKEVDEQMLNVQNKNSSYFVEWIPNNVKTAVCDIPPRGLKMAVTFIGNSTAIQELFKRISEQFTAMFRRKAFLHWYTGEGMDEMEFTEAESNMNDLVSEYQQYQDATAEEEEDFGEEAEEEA

What was measured:
[1] = molecular target: Polo-like kinase 2 (PLK2), wild type, BiFC bait fused to the N-terminal YFP fragment (human) (UniProt Q9NYY3); test: split reporter; BiFC in HEK293T cells: stable PLK2-bait (YFP N-fragment) cell line infected with prey (YFP C-fragment) retrovirus; YFP-positive cells counted by flow cytometry 48 hours after infection; repeated five times in triplicate
[2] = molecular target: T1, PLK2-PBD, polo-box domain mutant (W503F, H629A, K631M) (human) (UniProt Q9NYY3); test: proximity ligation; Duolink in situ Red PLA in fixed, permeabilised HEK293T cells co-transfected with pCDNA3.1 constructs; mouse anti-PLK1 and rabbit anti-PLK2 primary antibodies; with or without nocodazole (40 ng/mL, 16 hours)
T1 sequence: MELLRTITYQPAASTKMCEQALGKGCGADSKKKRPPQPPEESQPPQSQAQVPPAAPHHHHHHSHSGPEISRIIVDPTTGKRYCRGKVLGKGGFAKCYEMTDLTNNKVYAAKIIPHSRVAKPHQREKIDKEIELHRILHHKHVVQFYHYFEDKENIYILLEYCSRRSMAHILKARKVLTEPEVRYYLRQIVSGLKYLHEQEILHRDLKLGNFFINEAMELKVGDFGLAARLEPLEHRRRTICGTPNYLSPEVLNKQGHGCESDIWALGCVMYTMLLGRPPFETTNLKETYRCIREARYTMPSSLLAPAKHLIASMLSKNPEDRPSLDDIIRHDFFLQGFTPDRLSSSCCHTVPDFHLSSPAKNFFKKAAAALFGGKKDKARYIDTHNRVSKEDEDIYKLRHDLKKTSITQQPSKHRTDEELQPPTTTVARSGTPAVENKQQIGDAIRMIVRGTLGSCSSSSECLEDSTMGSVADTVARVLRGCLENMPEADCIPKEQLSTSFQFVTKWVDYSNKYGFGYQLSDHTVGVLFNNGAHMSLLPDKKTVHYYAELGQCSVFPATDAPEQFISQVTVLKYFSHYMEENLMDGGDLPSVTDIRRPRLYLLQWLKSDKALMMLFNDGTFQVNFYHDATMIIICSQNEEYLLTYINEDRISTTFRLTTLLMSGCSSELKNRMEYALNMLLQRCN

[3] = molecular target: T2, PLK2-KD, kinase-dead mutant (K111R) (human) (UniProt Q9NYY3); test: as above
T2 sequence: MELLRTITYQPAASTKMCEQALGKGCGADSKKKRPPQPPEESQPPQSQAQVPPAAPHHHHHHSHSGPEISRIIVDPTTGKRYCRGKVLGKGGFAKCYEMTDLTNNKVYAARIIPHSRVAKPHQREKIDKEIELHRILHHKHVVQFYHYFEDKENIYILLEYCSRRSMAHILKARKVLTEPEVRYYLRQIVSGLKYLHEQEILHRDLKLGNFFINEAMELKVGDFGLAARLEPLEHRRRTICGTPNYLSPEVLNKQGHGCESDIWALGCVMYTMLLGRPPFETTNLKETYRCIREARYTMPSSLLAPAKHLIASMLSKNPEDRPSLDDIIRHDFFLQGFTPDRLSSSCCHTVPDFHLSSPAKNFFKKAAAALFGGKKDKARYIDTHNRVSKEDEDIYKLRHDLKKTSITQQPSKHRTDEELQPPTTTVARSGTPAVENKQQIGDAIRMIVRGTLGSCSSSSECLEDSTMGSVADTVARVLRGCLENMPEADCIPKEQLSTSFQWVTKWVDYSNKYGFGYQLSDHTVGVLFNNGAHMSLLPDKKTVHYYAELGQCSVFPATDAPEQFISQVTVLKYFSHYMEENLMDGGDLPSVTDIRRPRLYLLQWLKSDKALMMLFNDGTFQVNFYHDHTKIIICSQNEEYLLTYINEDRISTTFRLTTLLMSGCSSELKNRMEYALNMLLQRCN

[4] = molecular target: Full-length wild-type PLK2 expressed from pCDNA3.1 (human) (UniProt Q9NYY3); test: as above
[5] = molecular target: Polo-like kinase 2 (PLK2), wild type, BiFC bait fused to the N-terminal YFP fragment (human) (UniProt Q9NYY3); test: split reporter; BiFC in HEK293T cells: stable PLK2-bait (YFP N-fragment) cell line infected with prey (YFP C-fragment) retrovirus; YFP-positive cells counted by flow cytometry 48 hours after infection; repeated five times in triplicate; remark: listed apart in the source

Molecule: Full-length PLK1 expressed from pCDNA3.1 (from UniProt P53350 1-603)
binding [2]: binds | binding [3]: binds | binding [4]: binds

Molecule: β-tubulin (TUBB), BiFC prey fused to the C-terminal YFP fragment (from UniProt P07437 1-444)
binding [1]: binds

The remaining lines, values ahead:

binding [1]: binds
Molecule: Polo-like kinase 1 (PLK1), BiFC prey fused to the C-terminal YFP fragment (from UniProt P53350 1-603)

binding [5]: no binding
B1: RB transcriptional corepressor 1 (RB1), BiFC prey fused to the C-terminal YFP fragment (protein, UniProt P06400 1-928)
chain: MPPKTPRKTAATAAAAAAEPPAPPPPPPPEEDPEQDSGPEDLPLVRLEFEETEEPDFTALCQKLKIPDHVRERAWLTWEKVSSVDGVLGGYIQKKKELWGICIFIAAVDLDEMSFTFTELQKNIEISVHKFFNLLKEIDTSTKVDNAMSRLLKKYDVLFALFSKLERTCELIYLTQPSSSISTEINSALVLKVSWITFLLAKGEVLQMEDDLVISFQLMLCVLDYFIKLSPPMLLKEPYKTAVIPINGSPRTPRRGQNRSARIAKQLENDTRIIEVLCKEHECNIDEVKNVYFKNFIPFMNSLGLVTSNGLPEVENLSKRYEEIYLKNKDLDARLFLDHDKTLQTDSIDSFETQRTPRKSNLDEEVNVIPPHTPVRTVMNTIQQLMMILNSASDQPSENLISYFNNCTVNPKESILKRVKDIGYIFKEKFAKAVGQGCVEIGSQRYKLGVRLYYRVMESMLKSEEERLSIQNFSKLLNDNIFHMSLLACALEVVMATYSRSTSQNLDSGTDLSFPWILNVLNLKAFDFYKVIESFIKAEGNLTREMIKHLERCEHRIMESLAWLSDSPLFDLIKQSKDREGPTDHLESACPLNLPLQNNHTAADMYLSPVRSPKKKGSTTRVNSTANAETQATSAFQTQKPLKSTSLSLFYKKVYRLAYLRLNTLCERLLSEHPELEHIIWTLFQHTLQNEYELMRDRHLDQIMMCSMYGICKVKNIDLKFKIIVTAYKDLPHAVQETFKRVLIKEEEYDSIIVFYNSVFMQRLKTNILQYASTRPPTLSPIPHIPRSPYKFPSSPLRIPGGNIYISPLKSPYKISEGLPTPTKMTPRSRILVSIGESFGTSEKFQKINQMVCNSDRVLKRSAEGSNPPKPLKKLRFDIEGSDEADGSKHLPGESKFQQKLAEMTSTRTRMQKQKMNDSMDTSNKEEK
